Reference: PubChem BioAssay (NCATS)
The inconclusive results got no clear call from the source; some entries with a clear call stand among them for comparison. For some assays here: Potencies of inconclusive entries are left out as doubtful fits. Calls of active or inactive are those of the source. Unless noted, calls follow the shape of the dose curve; as a rule, active = well fitted curve in the direction sought with a large enough effect; inconclusive = small, poorly fitted or top-dose-only effect, or another doubt; inactive = no such curve, though single readings can be large; an effect the other way counts as inactive or inconclusive.

Tests used:
[1] = molecular target: Cytochrome P450 2C9 (Homo sapiens) (UniProt P11712); test: Cytochrome P450 family 2 subfamily C member 9 (CYP2C9) small molecule antagonists: luciferase biochemical (cell-free) qHTS assay (AID 1645842; active = well fitted curve in the direction sought with a large enough effect in the repeat runs; inconclusive = weak or mixed curves; inactive = no such curve, though single readings can be large; an effect the other way counts as inactive or inconclusive; also: nearly all actives have a fitted effect of over 55% in size; also: potency is read from the fitted curve at half-maximal effect; as to activity change, negative = inhibition: % is scaled to controls: 0 for no effect and ±100 for the full control effect)
Method in brief: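 P450-Glo CYP2C9 system: proluciferin substrate with enzyme in mix containing 0.4% BSA, 10 min at room temperature, then NADPH regeneration solution added and incubated 1 h at 37C. Detection reagent stopped reaction; luminescence read after 20 min as RLU.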

[2] = qHTS of pediatric cancer cell lines to identify multiple opportunities for drug repurposing: Primary screen for OHS-50 cells (AID 1347103); also: nearly all actives have a fitted effect of over 40% in size; also: potency is read from the fitted curve at half-maximal effect;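 as to activity change, negative = cytotoxic: plate controls were DMSO neutral control for no effect and bortezomib positive control for full effect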
Method in brief: (§1)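 Cells (500-1,000/well) rested 5 h, then received compounds for 48 h; metabolically active cells were measured by CellTiter-Glo luminescence. Final concentrations spanned up to 46 µM (MIPE, 11-point) or 0.59 nM-46 µM (NPC, 8-point) in primary screens, 11-point in follow-ups.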

[3] = qHTS of pediatric cancer cell lines to identify multiple opportunities for drug repurposing: Primary screen for RD cells (AID 1347104); details: RD rhabdomyosarcoma viability, CellTiter-Glo luminescence, 48 h; activity change, negative = cytotoxic: at 46 µM (top of the series);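 also: plate controls were DMSO for no effect and bortezomib for full effect; nearly all actives have a fitted effect of over 55% in size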
Method in brief: (§2)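 Cells plated at 500-1,000/well in growth medium, compounds added after 5 h. MIPE tested at 11 points (from 0.78 nM), NPC at 8 points (from 0.59 nM). CellTiter-Glo luminescence after 48 h; concentration-response curves from primary screen.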

WaGa = test: qHTS assay to identify novel small-molecules to repurpose for Merkel cell carcinoma treatment (AID 1296009); details: MCC and control cell lines, CellTiter-Glo viability, 72 h; series mostly up to 46 µM; also: potency is read from the fitted curve at half-maximal effect; nearly all actives have a fitted effect of over 60% in size
Method in brief: (§3)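 Dose-response viability screen; 72 hr exposure at 37 degree celsius; CellTiter-Glo added, 10 min room temperature, luminescence read; RLUs scaled between no-cell and DMSO wells.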

[4] = qHTS of pediatric cancer cell lines to identify multiple opportunities for drug repurposing: Primary screen for A673 cells (AID 1347092); details: A673 Ewing sarcoma viability, CellTiter-Glo ATP luminescence, 48 h; activity change, negative = cytotoxic: at 46 µM (top of the series); also: nearly all actives have a fitted effect of over 45% in size; also: potency is read from the fitted curve at half-maximal effect; as to activity change, negative = cytotoxic: % is scaled to controls: 0 for no effect and ±100 for the full control effect
Method in brief: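 Titration-based qHTS on A673 cells: MIPE compounds spanned 11 points (0.78 nM to 46 µM final), NPC compounds 8 points (0.59 nM to 46 µM final). Viability after 48 h was measured by ATP luminescence.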

[5] = qHTS of pediatric cancer cell lines to identify multiple opportunities for drug repurposing: Primary screen for BT-37 cells (AID 1347094); also: potency is read from the fitted curve at half-maximal effect
Method in brief: as §2

[6] = qHTS of pediatric cancer cell lines to identify multiple opportunities for drug repurposing: Primary screen for Saos-2 cells (AID 1347097); also: nearly all actives have a fitted effect of over 40% in size; also: potency is read from the fitted curve at half-maximal effect; as to activity change, negative = cytotoxic: % is scaled to controls: 0 for no effect and ±100 for the full control effect
Method in brief: as §2

[7] = qHTS of pediatric cancer cell lines to identify multiple opportunities for drug repurposing: Primary screen for SK-N-SH cells (AID 1347098); also: nearly all actives have a fitted effect of over 65% in size; also: potency is read from the fitted curve at half-maximal effect
Method in brief: as §1

[8] = qHTS of pediatric cancer cell lines to identify multiple opportunities for drug repurposing: Primary screen for BT-12 cells (AID 1347101); also: nearly all actives have a fitted effect of over 25% in size; also: potency is read from the fitted curve at half-maximal effect;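 as to activity change, negative = cytotoxic: plate controls were DMSO for no effect and bortezomib positive control for full effect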
Method in brief: as §1

[9] = qHTS of pediatric cancer cell lines to identify multiple opportunities for drug repurposing: Primary screen for Rh18 cells (AID 1347102); also: potency is read from the fitted curve at half-maximal effect; nearly all actives have a fitted effect of over 65% in size
Method in brief: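 Viability after 48 h compound treatment at 37C, 500-1,000 cells/well, read as ATP luminescence with CellTiter-Glo. Primary screens used 11-point (MIPE, 0.78 nM-46 µM) or 8-point (NPC, 0.59 nM-46 µM) final concentrations; follow-up screens used 11-point dilutions.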

[10] = qHTS of pediatric cancer cell lines to identify multiple opportunities for drug repurposing: Primary screen for Rh41 cells (AID 1347108); also: potency is read from the fitted curve at half-maximal effect; nearly all actives have a fitted effect of over 70% in size
Method in brief: as §2

[11] = A High-Content qHTS Against Drug Library for the Identification of Small Molecules that Inhibit DYT1 Early Onset Primary Dystonia-Associated Cell Pathology (AID 1645839; calls by dose curve; also: potency is read from the fitted curve at half-maximal effect)
Method in brief: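 Cells were seeded and left for 24 h, then dosed with compound alongside tetracycline induction of mutant EGFP-TorsinA. They were incubated for 48 h, fixed in 4% paraformaldehyde, permeabilized and imaged for mislocalization (%pathology) and cell count.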

MKL-1 = test: qHTS assay to identify novel small-molecules to repurpose for Merkel cell carcinoma treatment (AID 1296009); details: MCC and control cell lines, CellTiter-Glo viability, 72 h; activity change, negative = cytotoxicity: at 46 µM (top of the series); also: potency is read from the fitted curve at half-maximal effect; nearly all actives have a fitted effect of over 60% in size
Method in brief: as §3

UISO = test: as above; details: MCC and control cell lines, CellTiter-Glo viability, 72 h; activity change, negative = cytotoxicity: at 46 µM (top of the series)
Method in brief: as §3

[12] = test system: Zika virus NS2B-NS3 protease (linked construct); test: Primary screen NINDS Rhodamine qHTS for Zika virus inhibitors (AID 1347160); details: activity change, negative = inhibition: at 57.1 µM (top of the series) unless noted; also: nearly all actives have a fitted effect of over 55% in size; also: potency is read from the fitted curve at half-maximal effect
Method in brief: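 Aprotinin served as in-plate control. Conditions: 25 nM linked NS2B-NS3, pH 8.0 Tris buffer, titrated compounds, 15 min preincubation and 15 min reaction with 1.5 microM Rhod110 substrate at room temperature.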

JEG-3 = test: Primary qHTS to identify gynecologic anti-cancer compounds using libraries of approved drugs and bioactive compounds (AID 1345084); details: Gynecologic cancer cell panel viability, ATPlite luminescence, 48 h; series mostly up to 57.5 µM; also: nearly all actives have a fitted effect of over 55% in size; also: potency is read from the fitted curve at half-maximal effect; as to activity change, negative = cytotoxicity: % is scaled to controls: 0 for no effect and ±100 for the full control effect
Method in brief: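 Five-point cytotoxicity, 48 h drug exposure at 37 C, 5% CO2, on cells seeded 16 h beforehand. ATP content read by ATPlite luminescence.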

[13] = molecular target: Phospholipid hydroperoxide glutathione peroxidase GPX4 (Homo sapiens) (UniProt P36969); test: Primary qHTS Assay for Inhibitors of Recombinant Selenoprotein Glutathione Peroxidase 4 (GPX4) (AID 1845192); also: nearly all actives have a fitted effect of over 65% in size; also: potency is read from the fitted curve at half-maximal effect
Method in brief: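 Steps: GPX4 plus compound, 30 min RT; add GR/GSH/NADPH master mix; start with cumene hydroperoxide; read 340/450 nm fluorescence at 0 and 15 min. Finals were 200 nM GPX4, 1 mM GSH, 0.5 mM CHP, 0.5 mM NADPH, 100 nM GR.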

[14] = qHTS of pediatric cancer cell lines to identify multiple opportunities for drug repurposing: Primary screen for SK-N-MC cells (AID 1347093); details: SK-N-MC viability, CellTiter-Glo luminescence, 48 h; activity change, negative = cytotoxic: at 46 µM (top of the series); also: potency is read from the fitted curve at half-maximal effect;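 as to activity change, negative = cytotoxic: plate controls were DMSO neutral control for no effect and bortezomib for full effect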
Method in brief: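 Metabolically active cells were quantified by ATP-dependent luminescence (CellTiter-Glo, 15 min at room temperature) following 48 h treatment. Cells had been plated at 500-1,000 per well and settled for 5 h beforehand.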

[15] = Drug repurposing screens with cells derived from glioblastoma tumor samples (AID 1345199); details: GBM patient neurospheres viability, ATP luminescence, 48 h; Potency: tumour line A unless noted; activity, negative = cell killing: at 46 µM (top of the series), tumour line A unless noted; also: potency is read from the fitted curve at half-maximal effect; nearly all actives have a fitted effect of over 40% in size
Method in brief: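 Primary testing used CD133+ neurospheres from four GBM patients, seven concentrations, 48 h exposure and ATP-based viability; confirmation added three slower-growing patient lines.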
Tags tell the direction and shape of the fitted curve.

Sequence of UniProt P11712 (P11712 whole entry, looked up): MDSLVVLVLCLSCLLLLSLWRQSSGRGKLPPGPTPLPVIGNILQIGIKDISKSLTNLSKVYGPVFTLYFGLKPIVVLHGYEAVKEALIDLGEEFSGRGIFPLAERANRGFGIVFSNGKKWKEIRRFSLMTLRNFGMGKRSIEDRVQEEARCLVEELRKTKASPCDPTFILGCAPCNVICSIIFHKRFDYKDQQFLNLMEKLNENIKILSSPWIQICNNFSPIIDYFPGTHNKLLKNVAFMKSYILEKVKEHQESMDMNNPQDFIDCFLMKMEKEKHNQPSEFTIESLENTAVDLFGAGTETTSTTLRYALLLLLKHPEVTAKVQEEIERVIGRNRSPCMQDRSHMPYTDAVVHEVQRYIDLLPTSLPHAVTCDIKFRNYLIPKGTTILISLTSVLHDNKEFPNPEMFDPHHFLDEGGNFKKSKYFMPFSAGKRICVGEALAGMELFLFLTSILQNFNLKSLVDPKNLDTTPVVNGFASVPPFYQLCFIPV
Sequence of UniProt P36969 (P36969 whole entry, looked up): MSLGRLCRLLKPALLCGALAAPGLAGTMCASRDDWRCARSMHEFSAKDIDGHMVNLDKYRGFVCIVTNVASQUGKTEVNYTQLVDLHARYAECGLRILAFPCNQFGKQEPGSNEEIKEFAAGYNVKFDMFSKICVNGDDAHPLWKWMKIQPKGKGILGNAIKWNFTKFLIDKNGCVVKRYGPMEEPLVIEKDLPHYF

Structure (SMILES): O=c1[nH]c2cccc(N3CCN(Cc4ccc(-c5ccccc5)cc4)CC3)c2o1
- Potency [1]: active: 5.35 µM

Structure (SMILES): NCc1ccccc1Sc1ccccc1CO
- Potency [2]: inconclusive [cytotoxic, partial curve]
- Potency [3]: inactive
- Potency [1]: active: 15.5 µM
- Potency (WaGa): inconclusive [inhibitor, single point]

Structure (SMILES): CCOC(=O)N1CCC(Nc2ccc(Cl)cc2N)CC1
- Potency [4]: inconclusive [cytotoxic, partial curve]
- Potency [5]: inconclusive [cytotoxic, partial curve]
- Potency [6]: inconclusive [cytotoxic, partial curve]
- Potency [7]: active: 19.4 µM
- Potency [8]: active: 4.9 µM
- Potency [9]: inconclusive [cytotoxic, partial curve, poor fit]
- Potency [2]: inconclusive [cytotoxic, partial curve]
- Potency [3]: inactive
- Potency [10]: inconclusive [cytotoxic, single point]
- Potency [11]: inconclusive [inhibitor, partial curve, poor fit]
- Potency (MKL-1): active: 21.1 µM
- Potency (UISO): inconclusive [inhibitor, partial curve]

Structure (SMILES): O=C(/C=C/c1ccc(O)cc1)OC[C@@]1(O)C=C[C@@H]2C(C(=O)O)=CO[C@@H](O[C@@H]3O[C@H](CO)[C@@H](O)[C@H](O)[C@H]3O)[C@@H]21
- Potency [12]: inconclusive [inhibitor, single point]

Structure (SMILES): CC(C)=CCC/C(C)=C/CC/C(C)=C/COC1OC(COC2OCC(OC3OCC(O)C(O)C3O)C(O)C2O)C(O)C(OC2OC(C)C(OC3OC(C)C(OC4OCC(OC5OC(C)C(O)C(O)C5O)C(O)C4O)C(O)C3O)C(O)C2O)C1O (configuration not stated)
- activity change, negative = cytotoxicity (JEG-3): inactive: -0.54% [at 6.55 µM]

Structure (SMILES): C/C1=C\CCC(C)CCO[C@@H]2O[C@H](CO[C@@H]3OC[C@H](O)[C@H](O)[C@H]3OC1=O)[C@@H](O)[C@H](O)[C@H]2O (some centres not stated)
- Potency [12]: inconclusive [inhibitor, partial curve, poor fit]

Structure (SMILES): CC(=O)OC1CCC2(C)C(CCC3(C)C2CC=C2C4CC(C)(C)CCC4(C)CCC23C)C1(C)C(=O)O (configuration not stated)
- Potency [12]: inconclusive [inhibitor, full curve]
- Potency (JEG-3): inactive

Structure (SMILES): COc1cc(Cc2cnc(N)nc2N)c(C(C)C)cc1OC
- Potency [12]: inconclusive [inhibitor, full curve, poor fit]

Structure (SMILES): O=C1C=CC2OC(c3ccccc3)C(O)C2O1 (configuration not stated)
- Potency (JEG-3): inconclusive [cytotoxic, single point]

Structure (SMILES): Cc1onc(-c2ccccc2)c1C(=O)Cl
- Potency [4]: inactive
- Potency [6]: inactive
- Potency [8]: inactive

Structure (SMILES): Cc1nc(NC(=O)N2CCCC2C(N)=O)sc1-c1csc(C(C)(C)C)n1 (configuration not stated)
- Potency [1]: inactive

Structure (SMILES): COCCOc1cnc2ccn([C@H](C)c3nnc4c(F)cc(-c5cnn(C)c5)cn34)c(=O)c2c1
- Potency (JEG-3): inactive

Structure (SMILES): COc1ccc(-c2cnc(-c3cccc4c3-c3ccccc3C4=O)o2)cc1
- Potency (JEG-3): active: 2 µM

Structure (SMILES): O=C(O)Cc1cccc2ccccc12
- Potency [7]: inactive
- Potency [8]: inactive
- Potency [1]: inactive
- Potency (JEG-3): inactive

Structure (SMILES): COc1ccc(C(=O)O[C@H]2C=COC=C3C=C4C(=O)N(C)C(=S)C(=O)N4[C@@H]32)cc1Oc1cc(C=O)ccc1O
- Potency [13]: active: 3.13 µM

Structure (SMILES): CC1=C(C(=O)OCc2ccccc2)C(c2ccc(-c3ccccc3)cc2)NC(=O)N1CCCCCC(=O)O (configuration not stated)
- Potency [12]: active: 7.94 µM
- Potency [13]: inconclusive [inhibitor, single point]

Structure (SMILES): C=C1C(=O)O[C@@H]2/C=C(\CO)CC/C=C(/C=O)C[C@H](O)[C@@H]12
- Potency [12]: inactive

Structure (SMILES): CCC1=CC2CN(C1)Cc1c([nH]c3ccccc13)[C@@](C(=O)OC)(c1cc3c(cc1OC)N(C)[C@H]1[C@@](O)(C(=O)OC)[C@H](OC(C)=O)[C@]4(CC)C=CCN5CC[C@]31[C@@H]54)C2 (some centres not stated)
- Potency [12]: inactive
- Potency (JEG-3): inconclusive [cytotoxic, full curve, poor fit]

Structure (SMILES): c1ccc(-c2csc(N3CCOCC3)n2)cc1
- Potency [1]: inconclusive [inhibitor, single point]

Structure (SMILES): O=C(c1c2ccccc2cc2ccccc12)N1CCC(N2CCC[C@@H](C(=O)N3CCOCC3)C2)CC1
- Potency [13]: inconclusive [inhibitor, single point]

Structure (SMILES): N[C@H]1C(O)O[C@H](CO)[C@@H](O)[C@@H]1O (some centres not stated)
- Potency [4]: inactive

Structure (SMILES): O=C1OC(OC(=O)c2cccnc2Nc2cccc(C(F)(F)F)c2)c2ccccc21 (configuration not stated)
- Potency [4]: inconclusive [cytotoxic, single point]
- Potency [14]: inconclusive [cytotoxic, partial curve, poor fit]
- Potency [8]: inactive
- Potency [2]: inactive
- Potency [1]: inconclusive [inhibitor, single point]

Structure (SMILES): CN1CCC(c2c[nH]c3ccc(NC(=O)c4ccc(F)cc4)cc23)CC1
- Potency [1]: inactive

Structure (SMILES): COc1cc(C)c(C(=O)Oc2cc(C)c(C(=O)Oc3cc(C)c(C(=O)NC(C)C(=O)O)c(O)c3)c(O[C@@H]3O[C@H](CO)[C@@H](O)[C@H](O)[C@H]3OC(C)=O)c2)c(OC)c1 (some centres not stated)
- Potency [12]: inconclusive [inhibitor, partial curve, poor fit]

Structure (SMILES): CCOC(=O)c1cc(C#N)c(N2CCC(C(=O)NS(=O)(=O)Cc3ccccc3)CC2)nc1C
- Potency [12]: inconclusive [inhibitor, partial curve]
- Potency [1]: active: 2.68 µM

Structure (SMILES): O=C(Oc1ccccc1)c1ccccc1O
- Potency [14]: inactive
- Potency [7]: inactive
- Potency [2]: inactive
- Potency [3]: inactive
- Potency [13]: inactive

Structure (SMILES): Cc1cc(O)cc2c1O[C@](C)(CCC[C@H](C)CCC[C@H](C)CCCC(C)C)CC2
- Potency [4]: inactive
- Potency [1]: inactive
- Potency [15]: active: 5.01 µM

Structure (SMILES): O=C(NOCC(O)CO)c1ccc(F)c(F)c1Nc1ccc(I)cc1F (configuration not stated)
- Potency [12]: inconclusive [inhibitor, single point]

Structure (SMILES): CN(C)C(=O)NC1CCC(CCN2CCN(c3cccc(Cl)c3Cl)CC2)CC1 (configuration not stated)
- Potency [1]: inconclusive [inhibitor, partial curve]
